Test results reported in publication PMC10668032.
Some of the results follow. At the low end of the ranking the order means little.

Target: SIX1-Q177R homeodomain (UniProt Q15475)
Assay: universal protein binding microarray
Details: Universal all-10-mer PBM (8x60K, AMADID 030236), 300 nM GST-tagged protein, Alexa Fluor 488 anti-GST; buffer, salt, pH and temperature not stated; high values mean tight binding; most listed sequences are background and not binding sites; double strand, one strand shown

**Q.** ACCCAGGT was tested. Which binding signal did it give?
**A.** The binding signal was 0.182 E-score.

**Q.** CGATTCAG was tested. Which binding signal did it give?
**A.** Its binding signal is -0.183 E-score.

**Q.** For ATACGACG, which binding signal is on record?
**A.** The binding signal was -0.0903 E-score.

**Q.** AGGAATTA was tested. Which binding signal did it give?
**A.** Its binding signal is -0.206 E-score.

**Q.** Which binding signal does the source give for ACCGATGG here?
**A.** Its binding signal is -0.071 E-score.

**Q.** How did the binding signal turn out when TAGTACTA was run?
**A.** The binding signal was -0.0412 E-score.

**Q.** With AATCAAAA as the sequence, how does the binding signal read?
**A.** The binding signal was -0.0451 E-score.

**Q.** AAGCTCGG was tested. Which binding signal did it give?
**A.** The binding signal was -0.2 E-score.

**Q.** With GTGCTAGA as the sequence, how does the binding signal read?
**A.** Its binding signal is -0.0111 E-score.

**Q.** GATGTTCC was tested. Which binding signal did it give?
**A.** The binding signal was -0.132 E-score.

**Q.** With CGCACTTC as the sequence, how does the binding signal read?
**A.** Its binding signal is -0.102 E-score.

**Q.** GGTACAAA was tested. Which binding signal did it give?
**A.** The binding signal was -0.0234 E-score.

**Q.** With CTCTGATC as the sequence, how does the binding signal read?
**A.** The binding signal was -0.0208 E-score.

**Q.** How did the binding signal turn out when ATTATAAA was run?
**A.** Its binding signal is -0.221 E-score.

**Q.** GAGCCTCC was tested. Which binding signal did it give?
**A.** The binding signal was -0.217 E-score.

**Q.** For ACTGCTAC, which binding signal is on record?
**A.** Its binding signal is 0.11 E-score.

**Q.** For CCTCGAGA, which binding signal is on record?
**A.** Its binding signal is -0.0793 E-score.

**Q.** With CAGCATCG as the sequence, how does the binding signal read?
**A.** Its binding signal is -0.2 E-score.

**Q.** With ATTAACCG as the sequence, how does the binding signal read?
**A.** Its binding signal is 0.0049 E-score.

**Q.** With CACTCCCG as the sequence, how does the binding signal read?
**A.** Its binding signal is 0.182 E-score.

**Q.** With CAAGTTCG as the sequence, how does the binding signal read?
**A.** Its binding signal is 0.0407 E-score.

**Q.** How did the binding signal turn out when CACGTAGA was run?
**A.** The binding signal was 0.0737 E-score.

**Q.** With AGTGGGCG as the sequence, how does the binding signal read?
**A.** The binding signal was -0.0215 E-score.

**Q.** For GGGTCTAA, which binding signal is on record?
**A.** The binding signal was 0.0979 E-score.

**Q.** How did the binding signal turn out when TTTCAAAA was run?
**A.** The binding signal was -0.272 E-score.

**Q.** How did the binding signal turn out when AATTTGAC was run?
**A.** Its binding signal is -0.0374 E-score.

**Q.** For ACAGTCTG, which binding signal is on record?
**A.** The binding signal was -0.225 E-score.

**Q.** With GCCATACC as the sequence, how does the binding signal read?
**A.** The binding signal was -0.0688 E-score.

**Q.** How did the binding signal turn out when TGAATCAA was run?
**A.** The binding signal was -0.0841 E-score.

**Q.** TACACCCA was tested. Which binding signal did it give?
**A.** Its binding signal is 0.471 E-score.

**Q.** With CAATATAG as the sequence, how does the binding signal read?
**A.** The binding signal was -0.0995 E-score.

**Q.** For GCTACTCA, which binding signal is on record?
**A.** Its binding signal is -0.0846 E-score.

**Q.** For ATCGTGAG, which binding signal is on record?
**A.** Its binding signal is -0.0302 E-score.

**Q.** ATATATCC was tested. Which binding signal did it give?
**A.** Its binding signal is 0.021 E-score.

**Q.** Which binding signal does the source give for ATGAAAAG here?
**A.** Its binding signal is -0.145 E-score.

**Q.** For AAAATGTT, which binding signal is on record?
**A.** Its binding signal is -0.166 E-score.

**Q.** Which binding signal does the source give for CGATGCTA here?
**A.** The binding signal was -0.183 E-score.

**Q.** How did the binding signal turn out when ACCATCCT was run?
**A.** Its binding signal is -0.0891 E-score.

**Q.** With CGCCGCTA as the sequence, how does the binding signal read?
**A.** The binding signal was -0.0424 E-score.

**Q.** CGAGCGCA was tested. Which binding signal did it give?
**A.** The binding signal was -0.128 E-score.

**Q.** Which binding signal does the source give for ATATGCCA here?
**A.** The binding signal was 0.00031 E-score.

**Q.** How did the binding signal turn out when AGACACTC was run?
**A.** Its binding signal is 0.363 E-score.

**Q.** For AGCCGACC, which binding signal is on record?
**A.** Its binding signal is 0.04 E-score.

**Q.** For ATAGAGCG, which binding signal is on record?
**A.** The binding signal was -0.247 E-score.

**Q.** For AGGATCCC, which binding signal is on record?
**A.** Its binding signal is 0.155 E-score.

**Q.** ATTATTAA was tested. Which binding signal did it give?
**A.** The binding signal was -0.153 E-score.

**Q.** With CATCAAAC as the sequence, how does the binding signal read?
**A.** Its binding signal is -0.086 E-score.

**Q.** AGCACGAA was tested. Which binding signal did it give?
**A.** Its binding signal is 0.0605 E-score.

**Q.** For CCTCGATA, which binding signal is on record?
**A.** Its binding signal is -0.0294 E-score.

**Q.** TCTACACA was tested. Which binding signal did it give?
**A.** Its binding signal is 0.194 E-score.

**Q.** How did the binding signal turn out when AGCGACAC was run?
**A.** Its binding signal is 0.465 E-score.

**Q.** How did the binding signal turn out when CAATCGCA was run?
**A.** The binding signal was -0.039 E-score.

**Q.** With TCCGAAGA as the sequence, how does the binding signal read?
**A.** The binding signal was -0.0175 E-score.

**Q.** Which binding signal does the source give for GCGGCGAA here?
**A.** The binding signal was -0.0975 E-score.

**Q.** CCACCCCA was tested. Which binding signal did it give?
**A.** Its binding signal is 0.267 E-score.

**Q.** Which binding signal does the source give for GCGATTCC here?
**A.** Its binding signal is -0.121 E-score.

**Q.** CAGACGTA was tested. Which binding signal did it give?
**A.** Its binding signal is -0.133 E-score.

**Q.** How did the binding signal turn out when GGCAAACC was run?
**A.** The binding signal was -0.0457 E-score.

**Q.** For AGTGGCTC, which binding signal is on record?
**A.** Its binding signal is -0.244 E-score.

**Q.** How did the binding signal turn out when AAAGCTGT was run?
**A.** The binding signal was -0.153 E-score.

**Q.** For GCCAGTGA, which binding signal is on record?
**A.** Its binding signal is -0.217 E-score.

**Q.** With GTCGATCA as the sequence, how does the binding signal read?
**A.** Its binding signal is -0.0716 E-score.

**Q.** For AGTGACAA, which binding signal is on record?
**A.** Its binding signal is -0.0873 E-score.

**Q.** Which binding signal does the source give for GCTCGCAC here?
**A.** Its binding signal is -0.00907 E-score.

**Q.** Which binding signal does the source give for CCTTTTCC here?
**A.** Its binding signal is -0.137 E-score.

**Q.** ACACTCTG was tested. Which binding signal did it give?
**A.** The binding signal was 0.404 E-score.

**Q.** For ACTGCCCT, which binding signal is on record?
**A.** Its binding signal is -0.186 E-score.

**Q.** Which binding signal does the source give for CAAGGACG here?
**A.** Its binding signal is -0.1 E-score.

**Q.** CCTGCCAG was tested. Which binding signal did it give?
**A.** The binding signal was 0.00762 E-score.

**Q.** For CAAGGTAG, which binding signal is on record?
**A.** Its binding signal is 0.0313 E-score.

**Q.** With CAAGTCCA as the sequence, how does the binding signal read?
**A.** The binding signal was -0.211 E-score.

**Q.** With CGCCCGCG as the sequence, how does the binding signal read?
**A.** Its binding signal is 0.0542 E-score.

**Q.** How did the binding signal turn out when AGTCCGAC was run?
**A.** The binding signal was -0.112 E-score.

**Q.** With ACGGCGCG as the sequence, how does the binding signal read?
**A.** Its binding signal is -0.0307 E-score.

**Q.** Which binding signal does the source give for CCATTGTA here?
**A.** The binding signal was -0.216 E-score.

**Q.** With CTAACGTC as the sequence, how does the binding signal read?
**A.** Its binding signal is -0.117 E-score.

**Q.** Which binding signal does the source give for ACTAATAT here?
**A.** The binding signal was 0.0662 E-score.

**Q.** With GCGGAAAC as the sequence, how does the binding signal read?
**A.** The binding signal was -0.162 E-score.

**Q.** For GTCGAAAA, which binding signal is on record?
**A.** Its binding signal is -0.0496 E-score.

**Q.** With CAATTTAC as the sequence, how does the binding signal read?
**A.** The binding signal was 0.0127 E-score.

**Q.** For TACATGAA, which binding signal is on record?
**A.** Its binding signal is -0.0417 E-score.

**Q.** CCACCTGC was tested. Which binding signal did it give?
**A.** The binding signal was 0.05 E-score.

**Q.** Which binding signal does the source give for AGTGGCCC here?
**A.** Its binding signal is -0.271 E-score.

**Q.** Which binding signal does the source give for ATGGTTTC here?
**A.** The binding signal was -0.0381 E-score.

**Q.** CGTTTTCA was tested. Which binding signal did it give?
**A.** The binding signal was -0.0704 E-score.

**Q.** For ATACTCCC, which binding signal is on record?
**A.** Its binding signal is 0.162 E-score.

**Q.** With ACGATACT as the sequence, how does the binding signal read?
**A.** Its binding signal is 0.143 E-score.

**Q.** How did the binding signal turn out when TCCTAGAA was run?
**A.** Its binding signal is 0.0238 E-score.

**Q.** With AAGCTGAG as the sequence, how does the binding signal read?
**A.** Its binding signal is -0.114 E-score.

**Q.** For TAGGGTAA, which binding signal is on record?
**A.** Its binding signal is 0.0306 E-score.

**Q.** ACGTTGAT was tested. Which binding signal did it give?
**A.** Its binding signal is -0.0834 E-score.

**Q.** With AACGATGA as the sequence, how does the binding signal read?
**A.** The binding signal was -0.0738 E-score.

**Q.** AACACAGG was tested. Which binding signal did it give?
**A.** The binding signal was 0.0717 E-score.

**Q.** For TAAAGCTA, which binding signal is on record?
**A.** The binding signal was -0.221 E-score.
